Measured values published in patent US8735349B2, “Method for improving glucose tolerance in a diabetes type 2 patient of younger than 50 years and having postprandial plasma glucose concentration of at least 14 mmol/L” (priority 2011, dated 2014).

Test system: obese type 2 diabetic patients younger than 50 and not adequately controlled with metformin
Conditions: human, in vivo

Structure (SMILES): N[C@@H](CC(=O)N1CCn2c(nnc2C(F)(F)F)C1)Cc1cc(F)c(F)cc1F [sitagliptin]
- Number of patients with TEAE: HLGT: Injuries NEC: 2
- Number of patients with TEAE: HLGT: Joint disorders: 3
- Number of patients with TEAE: HLGT: Lipid metabolism disorders: 3
- Number of patients with TEAE: HLGT: Menstrual cycle and uterine bleeding disorders: 0
- Number of patients with TEAE: HLGT: Neurological disorders NEC: 7
- Number of patients with TEAE: HLGT: Procedural related injuries and complications NEC: 0
- Number of patients with TEAE: HLGT: Purine and pyrimidine metabolism disorders: 3
- Number of patients with TEAE: HLGT: Respiratory disorders NEC: 6
- Number of patients with TEAE: HLGT: Sexual dysfunctions, disturbances and gender identity disorders: 1
- Number of patients with TEAE: HLGT: Sexual function and fertility disorders: 2
- Number of patients with TEAE: HLGT: Sleep disorders and disturbances: 3
- Number of patients with TEAE: HLGT: Urinary tract signs and symptoms: 4
- Number of patients with TEAE: HLGT: Urolithiases: 1
- Number of patients with TEAE: HLGT: Vascular hypertensive disorders: 4
- Number of patients with TEAE: HLGT: Viral infectious disorders: 11
- Number of patients with TEAE: HLGT: Vision disorders: 0
- Number of patients with TEAE: HLT: Abdominal and gastrointestinal infections: 7
- Number of patients with TEAE: HLT: Anxiety symptoms: 3
- Number of patients with TEAE: HLT: Appetite disorders: 0
- Number of patients with TEAE: HLT: Asthenic conditions: 4
- Number of patients with TEAE: HLT: Cardiac signs and symptoms NEC: 2
- Number of patients with TEAE: HLT: Coughing and associated symptoms: 2
- Number of patients with TEAE: HLT: Depressive disorders: 0
- Number of patients with TEAE: HLT: Dermatitis and eczema: 2
- Number of patients with TEAE: HLT: Diarrhoea (excl infective): 12
- Number of patients with TEAE: HLT: Digestive enzymes: 2
- Number of patients with TEAE: HLT: Disturbances in consciousness NEC: 1
- Number of patients with TEAE: HLT: Disturbances in initiating and maintaining sleep: 2
- Number of patients with TEAE: HLT: Dyspeptic signs and symptoms: 3
- Number of patients with TEAE: HLT: Ear infections: 2
- Number of patients with TEAE: HLT: Elevated triglycerides: 1
- Number of patients with TEAE: HLT: Erection and ejaculation conditions and disorders: 2
- Number of patients with TEAE: HLT: Flatulence, bloating and distension: 5
- Number of patients with TEAE: HLT: Gastritis (excl infective): 1
- Number of patients with TEAE: HLT: Gastrointestinal atonic and hypomotility disorders NEC: 3
- Number of patients with TEAE: HLT: General signs and symptoms NEC: 0
- Number of patients with TEAE: HLT: Headaches NEC: 15
- Number of patients with TEAE: HLT: Hepatocellular damage and hepatitis NEC: 0
- Number of patients with TEAE: HLT: Hyperglycaemic conditions NEC: 2
- Number of patients with TEAE: HLT: Hypoglycaemic conditions NEC: 5
- Number of patients with TEAE: HLT: Lipid metabolism and deposit disorders NEC: 2
- Number of patients with TEAE: HLT: Liver function analyses: 2
- Number of patients with TEAE: HLT: Lower respiratory tract and lung infections: 4
- Number of patients with TEAE: HLT: Menstruation and uterine bleeding NEC: 0
- Number of patients with TEAE: HLT: Nausea and vomiting symptoms: 11
- Number of patients with TEAE: HLT: Neurological signs and symptoms NEC: 5
- Number of patients with TEAE: HLT: Non-site specific procedural complications: 0
- Number of patients with TEAE: HLT: Oedema NEC: 4
- Number of patients with TEAE: HLT: Osteoarthropathies: 0
- Number of patients with TEAE: HLT: Pruritus NEC: 0
- Number of patients with TEAE: HLT: Purine metabolism disorders NEC: 3
- Number of patients with TEAE: HLT: Rate and rhythm disorders NEC: 2
- Number of patients with TEAE: HLT: Renal lithiasis: 1
- Number of patients with TEAE: HLT: Sexual desire disorders: 1
- Number of patients with TEAE: HLT: Skin injuries NEC: 0
- Number of patients with TEAE: HLT: Upper respiratory tract infections: 23
- Number of patients with TEAE: HLT: Upper respiratory tract signs and symptoms: 3
- Number of patients with TEAE: HLT: Urinary abnormalities: 3
- Number of patients with TEAE: HLT: Urinary tract infections: 2
- Number of patients with TEAE: HLT: Vascular hypertensive disorders NEC: 4
- Number of patients with TEAE: HLT: Viral infections NEC: 6
- Number of patients with TEAE: HLT: Visual disorders NEC: 0
- Number of patients with TEAE: Headache: 15
- Number of patients with TEAE: Hepatic steatosis: 0
- Number of patients with TEAE: Hyperglycaemia: 2
- Number of patients with TEAE: Hypertension: 4
- Number of patients with TEAE: Hypertriglyceridaemia: 1
- Number of patients with TEAE: Hypoglycaemia: 5
- Number of patients with TEAE: INFECTIONS AND INFESTATIONS: 51
- Number of patients with TEAE: Injection site pruritus: 0
- Number of patients with TEAE: Insomnia: 2
- Number of patients with TEAE: Joint injury: 2
- Number of patients with TEAE: Libido decreased: 1
- Number of patients with TEAE: Limb injury: 2
- Number of patients with TEAE: Lipase increased: 1
- Number of patients with TEAE: METABOLISM AND NUTRITION DISORDERS: 15
- Number of patients with TEAE: Malaise: 2
- Number of patients with TEAE: Microalbuminuria: 2
- Number of patients with TEAE: NERVOUS SYSTEM DISORDERS: 20
- Number of patients with TEAE: Nasopharyngitis: 12
- Number of patients with TEAE: Nausea: 11
- Number of patients with TEAE: Nephrolithiasis: 1
- Number of patients with TEAE: Oedema peripheral: 4
- Number of patients with TEAE: Oropharyngeal pain: 2
- Number of patients with TEAE: Osteoarthritis: 0
- Number of patients with TEAE: PSYCHIATRIC DISORDERS: 7
- Number of patients with TEAE: Pain in extremity: 2
- Number of patients with TEAE: Palpitations: 2
- Number of patients with TEAE: Pharyngitis: 3
- Number of patients with TEAE: Pharyngotonsillitis: 0
- Number of patients with TEAE: Procedural pain: 0
- Number of patients with TEAE: Pruritus: 0
- Number of patients with TEAE: RENAL AND URINARY DISORDERS: 7
- Number of patients with TEAE: REPRODUCTIVE SYSTEM AND BREAST DISORDERS: 2
- Number of patients with TEAE: RESPIRATORY, THORACIC AND MEDIASTINAL DISORDERS: 8
- Number of patients with TEAE: Respiratory tract infection: 2
- Number of patients with TEAE: SKIN AND SUBCUTANEOUS TISSUE DISORDERS: 4
- Number of patients with TEAE: Sinusitis: 1
- Number of patients with TEAE: Somnolence: 1
- Number of patients with TEAE: Stress: 0
- Number of patients with TEAE: Tachycardia: 2
- Number of patients with TEAE: Tooth infection: 0
- Number of patients with TEAE: Upper respiratory tract infection: 6
- Number of patients with TEAE: Urinary tract infection: 2
- Number of patients with TEAE: VASCULAR DISORDERS: 5
- Number of patients with TEAE: Vision blurred: 0
- Number of patients with TEAE: Vomiting: 0
- Patients with any TEAE: 98 (60.9%) n (%)
- Patients with any TEAE leading to permanent treatment discontinuation: 5 (3.1%) n (%)
- Patients with any serious TEAE: 3 (1.9%) n (%)
- Serious TEAE: Abscess limb: 1 (0.6%) n (%)
- Serious TEAE: Anaphylactic reaction: 0 n (%)
- Serious TEAE: Any class: 3 (1.9%) n (%)
- Serious TEAE: Arteriovenous fistula: 0 n (%)
- Serious TEAE: Bile duct stone: 1 (0.6%) n (%)
- Serious TEAE: HEPATOBILIARY DISORDERS: 1 (0.6%) n (%)
- Serious TEAE: HLGT: Allergic conditions: 0 n (%)
- Serious TEAE: HLGT: Bile duct disorders: 1 (0.6%) n (%)
- Serious TEAE: HLGT: Infections - pathogen unspecified: 1 (0.6%) n (%)
- Serious TEAE: HLGT: Renal disorders (excl nephropathies): 1 (0.6%) n (%)
- Serious TEAE: HLGT: Urolithiases: 0 n (%)
- Serious TEAE: HLGT: Vascular disorders NEC: 0 n (%)
- Serious TEAE: HLT: Anaphylactic responses: 0 n (%)
- Serious TEAE: HLT: Infections NEC: 1 (0.6%) n (%)
- Serious TEAE: HLT: Obstructive bile duct disorders (excl neoplasms): 1 (0.6%) n (%)
- Serious TEAE: HLT: Renal failure and impairment: 1 (0.6%) n (%)
- Serious TEAE: HLT: Renal lithiasis: 0 n (%)
- Serious TEAE: HLT: Vascular malformations and acquired anomalies: 0 n (%)
- Serious TEAE: IMMUNE SYSTEM DISORDERS: 0 n (%)
- Serious TEAE: INFECTIONS AND INFESTATIONS: 1 (0.6%) n (%)
- Serious TEAE: Nephrolithiasis: 0 n (%)
- Serious TEAE: RENAL AND URINARY DISORDERS: 1 (0.6%) n (%)
- Serious TEAE: Renal failure: 1 (0.6%) n (%)
- Serious TEAE: VASCULAR DISORDERS: 0 n (%)
- TEAE leading to permanent treatment discontinuation: Abdominal pain upper: 0 n (%)
- TEAE leading to permanent treatment discontinuation: Abscess limb: 1 (0.6%) n (%)
- TEAE leading to permanent treatment discontinuation: Alanine aminotransferase increased: 0 n (%)
- TEAE leading to permanent treatment discontinuation: Anaphylactic reaction: 0 n (%)
- TEAE leading to permanent treatment discontinuation: Any class: 5 (3.1%) n (%)
- TEAE leading to permanent treatment discontinuation: Bile duct stone: 1 (0.6%) n (%)
- TEAE leading to permanent treatment discontinuation: Diarrhoea: 0 n (%)
- TEAE leading to permanent treatment discontinuation: GASTROINTESTINAL DISORDERS: 0 n (%)
- TEAE leading to permanent treatment discontinuation: HEPATOBILIARY DISORDERS: 1 (0.6%) n (%)
- TEAE leading to permanent treatment discontinuation: HLGT: Allergic conditions: 0 n (%)
- TEAE leading to permanent treatment discontinuation: HLGT: Bile duct disorders: 1 (0.6%) n (%)
- TEAE leading to permanent treatment discontinuation: HLGT: Gastrointestinal investigations: 0 n (%)
- TEAE leading to permanent treatment discontinuation: HLGT: Gastrointestinal motility and defaecation conditions: 0 n (%)
- TEAE leading to permanent treatment discontinuation: HLGT: Gastrointestinal signs and symptoms: 0 n (%)
- TEAE leading to permanent treatment discontinuation: HLGT: Haematology investigations (incl blood groups): 1 (0.6%) n (%)
- TEAE leading to permanent treatment discontinuation: HLGT: Hepatobiliary investigations: 0 n (%)
- TEAE leading to permanent treatment discontinuation: HLGT: Infections - pathogen unspecified: 1 (0.6%) n (%)
- TEAE leading to permanent treatment discontinuation: HLGT: Neurological disorders NEC: 1 (0.6%) n (%)
- TEAE leading to permanent treatment discontinuation: HLGT: Renal disorders (excl nephropathies): 1 (0.6%) n (%)
- TEAE leading to permanent treatment discontinuation: HLT: Anaphylactic responses: 0 n (%)
- TEAE leading to permanent treatment discontinuation: HLT: Diarrhoea (excl infective): 0 n (%)
- TEAE leading to permanent treatment discontinuation: HLT: Digestive enzymes: 0 n (%)
- TEAE leading to permanent treatment discontinuation: HLT: Disturbances in consciousness NEC: 1 (0.6%) n (%)
- TEAE leading to permanent treatment discontinuation: HLT: Infections NEC: 1 (0.6%) n (%)
- TEAE leading to permanent treatment discontinuation: HLT: Liver function analyses: 0 n (%)
- TEAE leading to permanent treatment discontinuation: HLT: Nausea and vomiting symptoms: 0 n (%)
- TEAE leading to permanent treatment discontinuation: HLT: Obstructive bile duct disorders (excl neoplasms): 1 (0.6%) n (%)
- TEAE leading to permanent treatment discontinuation: HLT: Platelet analyses: 1 (0.6%) n (%)
- TEAE leading to permanent treatment discontinuation: HLT: Renal failure and impairment: 1 (0.6%) n (%)
- TEAE leading to permanent treatment discontinuation: IMMUNE SYSTEM DISORDERS: 0 n (%)
- TEAE leading to permanent treatment discontinuation: INFECTIONS AND INFESTATIONS: 1 (0.6%) n (%)
- TEAE leading to permanent treatment discontinuation: INVESTIGATIONS: 1 (0.6%) n (%)
- TEAE leading to permanent treatment discontinuation: Lipase increased: 0 n (%)
- TEAE leading to permanent treatment discontinuation: NERVOUS SYSTEM DISORDERS: 1 (0.6%) n (%)
- TEAE leading to permanent treatment discontinuation: Nausea: 0 n (%)
- TEAE leading to permanent treatment discontinuation: Platelet count decreased: 1 (0.6%) n (%)
- TEAE leading to permanent treatment discontinuation: RENAL AND URINARY DISORDERS: 1 (0.6%) n (%)
- TEAE leading to permanent treatment discontinuation: Renal failure: 1 (0.6%) n (%)
- TEAE leading to permanent treatment discontinuation: Somnolence: 1 (0.6%) n (%)
- TEAE leading to permanent treatment discontinuation: Vomiting: 0 n (%)
- patients with TEAE diarrhea: 7.5%
- percentage of patients with TEAEs leading to treatment discontinuation: 3.1%
- incidence of treatment emergent adverse events (TEAEs) (24 weeks): 60.9%
- patients with TEAE headache (24 weeks): 9.3%
- patients with TEAE nausea (24 weeks): 6.8%
- patients with a serious TEAE (24 weeks): 1.9%
- % of patients with TEAE: HLT: Gastrointestinal and abdominal pains (excl oral and throat) (po): 6.2%
- Number of patients with TEAE: HLT: Dental and oral soft tissue infections (po): 0
- Number of patients with TEAE: HLT: Gastrointestinal and abdominal pains (excl oral and throat) (po): 10
- TEAE leading to permanent treatment discontinuation: HLT: Gastrointestinal and abdominal pains (excl oral and throat) (po): 0 n (%)
